# In article PMC4336329 (PLoS ONE, 2015):
# The campaign covered roughly 310,000 compounds. About 2,200 (0.71%) showed an effect of 50% or more. Effects have a minus sign here. The list shows a part of the results.
# Biological target: human ether-à-go-go-related gene (hERG) potassium channel (human, UniProt Q12809)
# Experiment: primary screen, population patch clamp on CHO cells stably expressing hERG
# Chain of human ether-à-go-go-related gene (hERG) potassium channel (Q12809 whole entry, looked up): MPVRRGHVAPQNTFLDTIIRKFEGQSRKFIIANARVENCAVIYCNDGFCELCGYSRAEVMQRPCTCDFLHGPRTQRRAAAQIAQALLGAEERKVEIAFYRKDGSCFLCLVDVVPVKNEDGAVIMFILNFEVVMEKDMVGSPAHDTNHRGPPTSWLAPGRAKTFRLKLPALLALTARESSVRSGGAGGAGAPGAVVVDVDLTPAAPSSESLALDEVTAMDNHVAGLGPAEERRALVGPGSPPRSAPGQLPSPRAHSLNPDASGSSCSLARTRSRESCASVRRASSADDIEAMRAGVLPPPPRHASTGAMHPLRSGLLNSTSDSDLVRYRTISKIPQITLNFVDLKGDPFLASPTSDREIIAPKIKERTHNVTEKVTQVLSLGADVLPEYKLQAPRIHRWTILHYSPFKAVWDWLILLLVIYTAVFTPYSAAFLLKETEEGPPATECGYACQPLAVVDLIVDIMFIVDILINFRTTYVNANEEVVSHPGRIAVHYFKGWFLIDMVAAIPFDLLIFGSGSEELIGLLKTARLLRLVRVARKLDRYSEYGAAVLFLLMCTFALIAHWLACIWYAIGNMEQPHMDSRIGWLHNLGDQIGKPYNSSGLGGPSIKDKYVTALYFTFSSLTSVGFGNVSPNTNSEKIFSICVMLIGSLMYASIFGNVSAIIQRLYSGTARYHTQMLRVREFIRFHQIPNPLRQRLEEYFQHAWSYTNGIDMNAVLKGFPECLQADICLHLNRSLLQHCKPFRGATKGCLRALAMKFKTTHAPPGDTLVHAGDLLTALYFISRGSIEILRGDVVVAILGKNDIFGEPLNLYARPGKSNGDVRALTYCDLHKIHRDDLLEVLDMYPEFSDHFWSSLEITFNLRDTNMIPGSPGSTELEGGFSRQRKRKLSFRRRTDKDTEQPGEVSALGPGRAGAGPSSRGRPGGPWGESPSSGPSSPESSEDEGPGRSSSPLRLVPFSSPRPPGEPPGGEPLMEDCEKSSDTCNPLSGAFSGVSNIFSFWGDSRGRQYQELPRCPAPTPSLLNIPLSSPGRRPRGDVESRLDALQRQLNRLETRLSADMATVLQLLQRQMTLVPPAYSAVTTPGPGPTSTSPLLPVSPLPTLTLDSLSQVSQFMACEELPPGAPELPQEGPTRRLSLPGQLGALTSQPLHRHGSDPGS
row,SMILES,"hERG current change (%, negative = inhibition) at 1uM [%]"
1,O=C1/C(=C\c2ccccc2)CCc2c1[nH]c1ccccc21,6.85
2,Cc1cc(C)n(C(=O)CNC(=O)Cc2ccccc2)n1,12.4
3,O=C(/C=C/c1ccccc1)N/C(=C/c1ccccc1)C(=O)N1CCCCC1,2.01
4,O=C(NCc1ccc(F)cc1)c1cc(S(=O)(=O)N2CCCCC2)c[nH]1,8.4
5,CCOC(=O)/C(C#N)=C1/C=Nc2ccccc2N1,0.374
6,O=[N+]([O-])c1ccc(N2CCCC2)c(F)c1Br,6.24
7,COc1ccccc1CN1CCN(C(=O)c2cccc3ccccc23)CC1,10.4
8,Cc1nn(-c2ccccc2)c(C)c1C(=O)OCC(=O)Nc1cccc(S(N)(=O)=O)c1,6.28
9,CCn1c(=S)sc2c(=O)n(CC(=O)Nc3ccc(OC)cc3)c(C)nc21,7.32
10,CNC(=O)CC1C(=O)N(C)C(=S)N1NC(=O)c1ccc(Cl)cc1 (centres unmarked),-1.28
11,CCc1ccc2nc(N(CCCN(C)C)C(=O)c3ccc(S(=O)(=O)N4CCCC4)cc3)sc2c1.Cl,-25.3
12,CCCN(CCC)S(=O)(=O)c1ccc2c(c1)CCCN2C(C)=O,-11.3
13,NC(=O)COC(=O)c1sc2cc(F)ccc2c1Cl,7.49
14,COc1ccc(CC(=O)NCc2nnc(SCC(=O)Nc3ccc(OC)cc3)n2C)cc1,9.18
15,COc1ccc(-c2cc3c(=O)n(CC(=O)N4CCN(C)CC4)ncn3n2)cc1,-3.88
16,O=C(Nc1ccc(Br)cc1)C1CC=CCC1C(=O)OCC1CCCO1 (centres unmarked),6.1
17,O=C(CCN1C(=O)CSc2ccccc21)Nc1ccc(C(F)(F)F)cc1,5.62
18,Cc1noc(NS(=O)(=O)c2ccc(NC(=O)c3nn(-c4ccccc4)ccc3=O)cc2)c1C,15.9
19,O=C(NC1CCCc2ccccc21)C(Cc1ccccc1)NS(=O)(=O)c1cccs1 (centres unmarked),4.96

row,SMILES,"hERG current change (%, negative = inhibition) at 1uM [%]"
1,Cc1ccc(-n2nnc3c(=O)n(Cc4ccccn4)cnc32)cc1C,14.5
2,FC(F)(F)c1ccc(Sc2n[nH]c(C(F)(F)F)n2)nc1,9.59
3,CN1C(=O)C(C)(C)c2cc(S(=O)(=O)N3CCC(C(=O)NCc4ccc(F)cc4)CC3)ccc21,2.73
4,CC[N+]12CCC(CC1)C(=C(c1ccccc1)c1ccccc1)C2.[Br-],-8.25
5,Cc1ccc(S(=O)(=O)N(C)CCCC(=O)NC(C)(C)C)cc1,13.6
6,Cn1cc(C(=O)N/N=C/c2c(O)ccc3ccccc23)ccc1=O,12.4
7,O=C(O)c1ccc(N2CCc3ccccc32)c([N+](=O)[O-])c1,20.3
8,N#Cc1ccccc1S(=O)c1ccccc1C(=O)Nc1ccccc1 (centres unmarked),9.25
9,CCOC(=O)c1ccc(Oc2c(C)oc3c(CN4CCN(C)CC4)c(O)ccc3c2=O)cc1,5.89
10,O=C(O)CSc1cc(C(=O)c2cc(F)ccc2O)cn2c(=O)c3c(-c4ccccc4)csc3nc12,1.97
11,Cc1ccc(CSCC(=O)N2CCN(c3ccc(F)cc3)CC2)cc1,-3.05
12,COc1ccc(NC(=O)CC2C(=O)N(c3ccc(Cl)cc3)C(=S)N2CCc2ccccn2)cc1 (centres unmarked),0.654
13,Nc1nc(-c2ccco2)nn1S(=O)(=O)c1ccccc1,21.8
14,Cc1cccc(OCC(=O)N2CCN(Cc3cccnc3)CC2)c1.O=C(O)C(=O)O,4.47
15,CNCCCNC(=O)c1ccc(/C=N/O)nc1,15.1
16,CSc1ccc(S(=O)(=O)Nc2ccc(S(=O)(=O)Nc3ccc(C)cc3)cc2)cc1,1.01
17,O=C(CNc1n[nH]c(=O)[nH]c1=O)N/N=C/C=C/c1ccccc1,8.03
18,COc1ccc(C2C(C#N)=C(N)OC3=C2C(=O)CC(C)(C)C3)cc1Cn1nc(C)c([N+](=O)[O-])c1C (centres unmarked),-13
19,CSCCC(NC(=O)COc1ccccc1)C(=O)N1CCN(c2ccccc2Cl)CC1 (centres unmarked),-0.953

row,SMILES,"hERG current change (%, negative = inhibition) at 1uM [%]"
1,CCOC(=O)C1=C(C)NC(SC(C)=O)=NC1c1ccc(OC(C)=O)c(OC)c1 (centres unmarked),2.83
2,CCCn1c(C)cc(C(=O)COC(=O)c2c(C)nn(-c3ccccc3)c2C)c1C,5.71
3,CCN(CC)CCN(C(=O)c1cc(Cl)sc1Cl)c1nc2cc3c(cc2s1)OCO3.Cl,0.653
4,Cn1ncc2c(N3CCOCC3)ncnc21,12.3
5,O=c1oc2ccccc2n1Cc1ccccc1,18
6,C=CCC(C)(NCc1ccccc1)c1ccc(C)cc1.Cl (centres unmarked),11.7
7,CSc1ccc(NC(=O)NCCCN2CCC(Cc3ccccc3)CC2)cc1,-76
8,CCOC(=O)c1ccc(N2CN(C3CCCCC3)CNC2=S)cc1,18.6
9,Cc1cc(C(=O)CN2C(=O)C3CC=CCC3C2=O)c(C)n1-c1ccccc1 (centres unmarked),-7.58
10,Nc1nonc1-c1noc(N2CCOCC2)n1,12.9
11,O=C(CNS(=O)(=O)c1ccc(Br)s1)N1CCC(N2CCCCC2)CC1,-5.7
12,CCn1c(Cc2ccccc2)nnc1SCC(=O)OC(C)C,-1.31
13,CCn1c(SCC(=O)NCCc2ccc(Cl)cc2)nnc1-c1cccs1,-36.6
14,Clc1ccc(Oc2ccccc2)c2ncccc12,9.87
15,COc1cc(C(=O)NNC(=O)c2cc(=O)[nH]c3ccccc23)cc(OC)c1OC,15.6
16,C=CCOc1c(CNn2cn[nH]c2=S)cccc1OC,10.8
17,O=C(CN(C(=O)CNC(=O)c1ccco1)c1ccc2c(c1)OCCO2)NC1CCCCC1,24.9
18,CC(C)C(=O)N/N=C/c1ccc(OCc2ccccc2)cc1,23
